Measured values reported in patent US6207389A, “Methods of controlling T lymphocyte mediated immune responses” (HRC Research and Development Limited Partnership, priority 1995, dated 2001).
Entries after “also recorded” stand apart in the source; their conditions may differ. Part of at least one peptide drawing is inferred or uncertain, most often the ends. Some entries repeat one wording, which the source may state once for all of them. No end group written: not given here.

Tests used:
[1] = tested on: PBMC from children with recent onset diabetes; assay: Proliferative response of PBMC to peptide fragments in the presence of IL2 (Example 4); format: cell-based, human; details: for Stimulation Index: average, 3H thymidine cpm in peptide-stimulated culture divided by control culture, 1-30 μg peptide plus 10U IL2, PBMC from at least 3 children; for patients showing a PBMC proliferative response: in the presence of 10 U IL2; for PBMC proliferative response: patient PBMC, in the presence of IL2
Experimental: Cultures containing 5×10^4 cells were incubated for 7 days at 37° C. in serum-free HL-1 medium (Ventrex, Portland, Me.) containing 1 μg antigen per well for test samples.
After an overnight pulse of 1 μci ^3 H thymidine, cultures were harvested and submitted to liquid scintillation counting. Proliferation was expressed as cpm ^3 HTdR×10^-3.
Control cultures were stimulated with 1 μg ovalbumin or horse or human albumin. […] A 4 h. pulse with 1 μCi ^3 H thymidine was used.
Each synthetic peptide was tested with PBMC from at least 3 children with recent onset diabetes. Stimulation Index=^3 H Thymidine Incorporation in peptide-stimulated culture in cpm divided by Thymidine incorporation in control culture in cpm.
Peptides corresponding to stretches of the amino acid sequence of human p69 were also synthesised and the proliferative response to patient PBMC cultures to these peptides were similarly tested, in the presence of IL2.

[2] = tested on: neonatal NOD mice; assay: IDDM development after neonatal treatment with Tep69 (Example 8); format: in vivo, mouse; details: single intraperitoneal injection 50 μg, followed 40 weeks
[3] = tested on: PBMC from a child with recent onset diabetes (IL2R transcripts); assay: IL2 receptor transcript induction by RT-PCR, patient cells (Example 6); format: cell-based, human; details: 1 μg antigen, 2 days incubation
[4] = tested on: PBMC from a healthy control subject (IL2R transcripts); assay: IL2 receptor transcript induction by RT-PCR, healthy control cells (Example 6); format: cell-based, human; details: 1 μg antigen, 2 days incubation
[5] = tested on: PBMC from a child with recent onset diabetes; assay: Proliferative response, patient cells (Example 6); format: cell-based, human; details: 1 μg antigen per culture, 7 days
Experimental: Replicate cultures of PBMC from a child with recent onset diabetes and a healthy control subject were stimulated with P2267, Tep69, Herpes simplex antigen or a mixture of P2267 and Tep69 (1 μg antigen per culture) as described in Example 3. After 2 days of incubation, one patient cell culture and one healthy control culture were harvested for RNA extraction and measurement of IL2 receptor transcripts by RT-PCR, as described by Cheung et al., (1991), J. Biol. Chem., v. 266, pp. 8667-8670. PCR was used to amplify a 739 bp fragment of IL2R coding sequence from patient and control and also a 430 bp region in the human β-actin gene of patient.
Remaining cultures were incubated for a further 5 days and used to determine proliferative responses as described in Example 3.

[6] = tested on: NOD mice; assay: Serum antibodies to BSA and p69 by fluoroimmunoassay, NOD mice (Example 11); format: in vivo, mouse; details: 50 μg sc in complete Freund's adjuvant
Experimental: (§1) Male non-obese diabetic mice (NOD, 6-7 weeks old) were immunized with 50 μg BSA, ABBOS-short peptide ([…]), recombinant truncated p69 or p69 T cell epitope peptide `Tep69` ([…]) (10). Recombinant truncated p69 was prepared by expression of a portion of the cDNA of IS4. The cDNA was cut a few nucleotides downstream of the 3' terminal of exon 3 and was subcloned into the PET™ expression system according to the manufacturer's recommendations (Novagen Inc., Madison, Wis.).
(§2) Antigens were injected subcutaneously in complete Freunds' adjuvant, and local lymph nodes and blood samples were collected 10 days later. […] Six hours before harvesting, 1 μCi ^3 H-thymidine (6.7 Ci/mmol) was added to the wells, and isotope incorporation was analysed by liquid scintillation counting. Values are expressed as mean counts per minute ± standard deviation (mean cpm ± SD).
(§3) Serum antibodies to BSA and p69 were measured by particle concentration fluoroimmunoassay, as described (11). […] Bound fluorescence was read by an automated ScreenMachine™ instrument (IDEXX, Portland, Me.). Data are expressed in kilofluorescence units relative to a standard mouse serum analyzed in parallel within each assay plate.
(§4) Young male NOD mice (H2^G7, IE^-/-) received a single immunization with truncated p69 (as encoded by IS4 cDNA) in complete adjuvant, and antibody and T cell proliferative responses were measured 8-10 days later. […]

[7] = tested on: NOD mice; assay: IDDM development after immunisation at five weeks (Example 9); format: in vivo, mouse; details: 50 μg, single subcutaneous injection in incomplete adjuvant at five weeks
[8] = tested on: C57/B6 and SJL mice lymph node cells; assay: Immunization and T cell proliferation assay, non-diabetes prone control mice (Example 11); format: in vivo, mouse; details: for T cell proliferative response after immunisation: C57/B6 (and SJL) mice, 50 μg sc in complete Freund's adjuvant
Experimental: (§5) Recombinant truncated p69 was prepared by expression of a portion of the cDNA of IS4. The cDNA was cut a few nucleotides downstream of the 3' terminal of exon 3 and was subcloned into the PET™ expression system according to the manufacturer's recommendations (Novagen Inc., Madison, Wis.). The truncated protein contains 100 amino acids and is essentially identical with the murine molecule.
(§6) Antigens were injected subcutaneously in complete Freunds' adjuvant, and local lymph nodes and blood samples were collected 10 days later. Triplicate cultures of 2×10^5 lymph node cells were incubated for 5 days in serum-free HGM-af Medium™ (Promo Cell, Heidelberg, Germany) in the presence of 1 μg of protein or synthetic peptide as recall antigen. Six hours before harvesting, 1 μCi ^3 H-thymidine (6.7 Ci/mmol) was added to the wells, and isotope incorporation was analysed by liquid scintillation counting. Values are expressed as mean counts per minute ± standard deviation (mean cpm ± SD).
(§7) Young male NOD mice (H2^G7, IE^-/-) received a single immunization with truncated p69 (as encoded by IS4 cDNA) in complete adjuvant, and antibody and T cell proliferative responses were measured 8-10 days later. MHC disparate C57/B6 (H2^b, IE^-/-) and SJL (H2^s, IE^-/-) mice served as non-diabetes prone controls (FIG. 31).

[9] = tested on: PBMC cultures from patients with recent onset diabetes; assay: Proliferative responses to antigen mixtures (Example 5); format: cell-based, human; details: for PBMC proliferation in the absence of IL2: patient PBMC, no IL2 (FIG. 9A)
Experimental: Proliferation assays were conducted as described in Example 3. Control cultures were treated with 1 μg horse albumin or with the peptides P2240, P2269, P2270 or H1029. Results with control antigens were similar and data were pooled.
Responses were expressed as mean of triplicate cultures; variations were <12%. Responses in the absence of IL2 are shown in FIG. 9, Panel A. Parallel cultures were treated with the same antigens and antigen mixtures in the presence of 10U IL2.

[10] = tested on: NOD mice lymph node cells; assay: Immunization and T cell proliferation assay, NOD mice (Example 11); format: in vivo, mouse
Experimental: as §5, §6, §7

[11] = tested on: C57/B6 and SJL mice; assay: Serum antibodies to BSA and p69 by fluoroimmunoassay, control mice (Example 11); format: in vivo, mouse; details: 50 μg sc in complete Freund's adjuvant
Experimental: as §1, §2, §3, §4

[12] = tested on: female NOD mice; assay: IDDM development after immunotherapy with BSA or ABBOS in adjuvant (Example 7); format: in vivo, mouse; details: 150 μg BSA or 50 μg ABBOS in incomplete Freund's Adjuvant sc at 5 weeks, ip booster one week later; up to 9 months
Experimental: (§8) A control group (13 mice) was injected with incomplete Freund's Adjuvant only and a further control group (13 mice) was untreated. A booster injection of the same treatment material was given intraperitoneally one week later.
IDDM development was followed by testing for urine glucose and when urine glucose was detected, blood glucose was then determined.

[13] = tested on: female NOD mice; assay: Circulating IgG anti-BSA antibodies by particle concentration fluoroimmunoassay (Example 7); format: in vivo, mouse; details: same treatment; over 34 weeks
Experimental: as §8
Circulating IgG anti-BSA antibodies were measured over the 34 weeks of the experiment, using the particle concentration fluoroimmunoassay described by the inventors in International Patent Application No. PCT/CA93/000304.

ADEKK [CON-14, ADEKK]
Stimulation Index [1]: 1.06

AFIKATGKKEDE [Tep69]
development of IDDM [2]: delayed the appearance of the disease in the remainder; also recorded: completely prevented the development of IDDM in most treated animals and delayed disease expression in the remainder | treated animals in which development of IDDM was completely prevented [2]: over 80% | IL2R induction in IDDM patient cells [3]: activated IL2R transcription to a similar extent | IL2R induction in healthy control cells [4]: did not show IL2R induction | Stimulation Index [1]: 7.98 | patients showing a PBMC proliferative response [1]: 21 of 23 | PBMC proliferative response [1]: significantly higher than responses to control antigens or peptides | proliferation of patient cells [5]: 1360±190 cpm | antibody response after immunisation (anti-p69 or anti-BSA) [6]: did not develop significant anti-p69 antibody levels | development of IDDM [7]: accelerated diabetes development and significantly increased the disease incidence | T cell proliferative response after immunisation [8]: essentially no responses | effect on proliferative response to P2267 ([9]; 1 μg of each antigen / equimolar, absence of IL2): suppressed the proliferative response; also recorded: showed no proliferation unless exogenous IL2 was added; also recorded: similarly suppressed | effect on proliferative response to BSA ([9]; 1 μg of each antigen, absence of IL2): suppressed the proliferative response to BSA; also recorded: showed no proliferation unless exogenous IL2 was added; also recorded: only slightly higher than Tep69 alone | effect on proliferative response to Herpes Simplex antigen ([9]; absence of IL2): unaffected; also recorded: did not affect the proliferative response to Herpes Simplex antigen | PBMC proliferation in the absence of IL2 [9]: not in its absence

DEFKADEKKFWG [Peptide C150]
Stimulation Index [1]: 3.27

DKTRAGKMMQAT [Peptide H-1044]
Stimulation Index [1]: 0.94 | PBMC proliferative response [1]: no proliferative response

EFKAD [CN-10, EFKAD]
Stimulation Index [1]: 0.97

EFKADE [CN-9, EFKADE]
Stimulation Index [1]: 1.1

EFKADEKK [Peptide P2267]
IL2R induction in IDDM patient cells [3]: activated IL2R transcription to a similar extent | IL2R induction in healthy control cells [4]: did not show IL2R induction | Stimulation Index [1]: 7.32 | patients showing a PBMC proliferative response [1]: All 24; also recorded: all showed proliferative responses | PBMC proliferative response [1]: significantly higher than responses to control antigens or peptides | PBMC proliferation in the absence of IL2 [9]: gave PBMC proliferation in the absence of IL2

EFKADEKKFW [Peptide C151]
Stimulation Index [1]: 3.31

EFKADEKKFWGKYL [ABBOS-short]
antibody response after immunisation (anti-p69 or anti-BSA) [6]: considerable anti-BSA antibody levels | T cell response of BSA-immunised mice to in vitro stimulation with the peptide ([10]; NOD lymphocytes): responded well | T cell proliferative response after immunisation ([10]; NOD mice, 50 μg sc in complete Freund's adjuvant, recall with 1 μg antigen in vitro): generated the same T cell responses when stimulated in vitro with either ABBOS-short or BSA | antibody response after immunisation (anti-p69 or anti-BSA) [11]: failed to trigger a significant anti-BSA antibody responses | T cell proliferative response after immunisation [8]: at best small responses | T cell response of BSA-immunised mice to in vitro stimulation with the peptide ([8]; C57/B6 mice): poor T cell response

EFKATGKK [Peptide C164]
Stimulation Index [1]: 6.94 | PBMC proliferative response [1]: did not affect stimulation of the proliferative response

FKADEK [CN-13, FKADEK]
Stimulation Index [1]: 0.92

FKADEKKFWGKYLYEIAR [ABBOS]
Stimulation Index [1]: 7.86 | development of IDDM [12]: complete prevention of IDDM | anti-BSA antibody response [13]: massive antibody response

FKDDEKKFWGKYLYEIAR [ABBOS-D]
Stimulation Index [1]: 1.20 | effect on proliferative response to ABBOS ([9]; mixture of ABBOS and ABBOS-D, absence of IL2): suppressed the proliferative response; also recorded: showed suppression of the response to ABBOS

HVVASDADLDAKLELFHS [Peptide H-1026]
Stimulation Index [1]: 1.08 | PBMC proliferative response [1]: no proliferative response

KADEKK [CN-11, KADEKK]
Stimulation Index [1]: 1.09

LAKKNFDKLKMDVCQKVD [Peptide H-1031]
Stimulation Index [1]: 0.98 | PBMC proliferative response [1]: no proliferative response

LCDEFKADEKK [Peptide C148]
Stimulation Index [1]: 4.74
